# From PubChem BioAssay AID686979 (National Center for Advancing Translational Sciences (NCATS), 2013)
# Where “and” joins values, the source holds several entries; their conditions need not be identical. Identical values can stand only once. The campaign covered roughly 420,000 compounds. About 50,000 (12%) were called active. The inconclusive results got no clear call from the source; some entries with a clear call stand among them for comparison. Calls come from the whole dose curve; as a rule, active = well fitted inhibition curve with a large enough effect; inconclusive = small, poorly fitted or top-dose-only effect; inactive = flat fitted curve, though single readings scatter. Potencies beside an inconclusive call are fits to weak or partial responses and may not hold up.
# Test: qHTS for Inhibitors of human tyrosyl-DNA phosphodiesterase 1 (TDP1): qHTS in cells in presence of CPT; note: nearly all actives have a fitted effect of over 55% in size
# Details: chicken DT40 Tdp1-/-;hTDP1 cells + 20 nM CPT, ATP luminescence, 48 h; activity change, negative = growth inhibition: at 46.2 µM (top of the series) unless noted
# Outline: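 Chicken DT40 Tdp1-/- cells stably complemented with human TDP1 were seeded at 400 cells/well in medium containing 20 nM camptothecin, exposed to pin-transferred compounds, and grown at 37 °C for at least 48 hr. Viability was read as ATP luminescence.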
# % is set by controls: 0 for no effect and ±100 for the full control effect; potency is the fitted concentration of half-maximal effect; tags give direction and shape of the fitted curve.
SMILES,Potency,"activity change, negative = growth inhibition"
CCN(CCc1ccccc1)c1ccc2c(c1)C1CC2CCN1C(=O)OCc1ccccc1 (centres undefined),"inconclusive: 23.1 µM [inhibitor, single point]",–
C/C(CCc1oc2ccc(Cl)cc2c1-c1ccc(C)o1)=N\O,"inconclusive: 29.1 µM [inhibitor, single point]",–
Cc1ccc2nc(N/C(=N/S(=O)(=O)c3cccs3)c3ccccc3Cl)sc2c1,inactive,–
O=C(N/N=C/c1ccc2c(c1)OCO2)c1cccs1,"inconclusive: 29.1 µM [inhibitor, single point]",–
Cc1ccc(OCC(=O)NCC2CCCO2)c(C)c1 (centres undefined),inactive,–
Cc1[nH]c2ccccc2c1C(C[N+](=O)[O-])c1cccs1 (centres undefined),"inconclusive: 29.1 µM [inhibitor, single point]",–
Cc1[nH]n(-c2ccc([N+](=O)[O-])cc2)c(=O)c1C=NCCc1c(C)[nH]c2ccccc12,active: 16.4 µM,–
Cc1ccc(C(=O)CSC2=NC(N)=C(C#N)C3(CCCCC3)C2C(N)=O)cc1 (centres undefined),"inconclusive: 29.1 µM [inhibitor, partial curve, poor fit]",–
CCN(CC(=O)N1CCC(C(N)=O)CC1)S(=O)(=O)c1cc(Cl)ccc1Cl,inactive,–
CC(=O)N1CCC(=NNC(=O)c2cc3ccccc3cc2O)CC1,inactive,–
COc1cc(C2c3c(oc4ccccc4c3=O)C(=O)N2c2nc(C)c(C)s2)ccc1O (centres undefined),"inconclusive: 29.1 µM [inhibitor, single point]",–
COc1ccc(-c2nc3nc(N)nn3cc2C)cc1F,inactive,–
NC(=O)C1Cc2ccccc2CN1C(=O)c1cccc(Oc2ccccc2)c1 (centres undefined),"inconclusive: 29.1 µM [inhibitor, single point]",–
O=C1C=C(NCc2ccc(Cl)cc2)CC(c2ccco2)C1 (centres undefined),active: 23.1 µM,–
Cc1cccn2c(=O)c(/C=C(\C#N)c3nc4ccccc4s3)c(Oc3ccc(Br)cc3)nc12,active: 7.31 µM,–
O=C(Nc1cccc(F)c1)c1cccc(S(=O)(=O)N2CCOCC2)c1,inactive,–
Cc1ccccc1NC(=O)Nc1ccc2nc(N3CCN(C)CC3)cc(C)c2c1,"inconclusive: 18.4 µM [inhibitor, single point]",–
O=C(CN1C(=O)NC2(CCCCCC2)C1=O)NCc1ccc(F)cc1,inactive,–
CC(=O)c1cc(-c2ccc(F)cc2)n(CC(=O)NC(C)c2ccccc2)c1C (centres undefined),"inconclusive: 20.6 µM [inhibitor, partial curve]",–
CCCOC(=O)c1ccc2c(c1)C(=O)N(c1ccccc1)C2=O,–,inconclusive: -31.4% [inhibitor]
Cc1c(C(=O)OC2CCCCC2)[nH]c2c1C(=O)CC(c1ccccc1Cl)C2 (centres undefined),active: 4.11 µM,–
O=C(NCc1ccccc1F)C1CCN(Cc2cc3ccccc3n2Cc2cccc(Cl)c2)CC1,"inconclusive: 29.1 µM [inhibitor, single point]",–
Cc1cccc(-c2cc(NC=O)c3ncc(-c4cccc(C(=O)N(C)C)c4)n3c2)c1,"inconclusive: 29.1 µM [inhibitor, single point]",–
COCCN(C(=O)c1ccc2c(c1)S(=O)(=O)N=C1CCCCCN12)c1c(N)n(CC(C)C)c(=O)[nH]c1=O,inactive,–
NCCNC(=O)c1ccc(Cl)cn1,inactive,–

SMILES,Potency,"activity change, negative = growth inhibition"
O=C(Cc1ccc(Cl)cc1)Nc1ccccc1N1CCOCC1,"inconclusive: 16.4 µM [inhibitor, single point]",–
CC(C)(C)NC(=S)NC(=O)C12CC3CCC(CC(C3)C1)C2,"inconclusive: 29.1 µM [inhibitor, single point]",–
CC[C@@]12C(=O)N(c3ccc(OC)cc3)C(=O)N1[C@H](c1ccc(Cl)cc1)[C@@H]1C(=O)N(C3CCCCC3)C(=O)[C@@H]12,active: 20.6 µM,–
O=C(Nc1ccccc1)c1ccccc1OCc1cccc([N+](=O)[O-])c1,"inconclusive: 9.2 µM [inhibitor, partial curve, poor fit]",–
CC(=O)N1CCOc2ccc(S(=O)(=O)NCCc3ccc(C)cc3)cc21,"inconclusive: 23.1 µM [inhibitor, single point]",–
O=C(Nc1nonc1NC(=O)c1cccs1)c1cccs1,active: 25.9 µM,–
Cc1cc(C)n(-c2nnc(Nc3ccc(C(C)C)cc3)c3ccccc23)n1,"inconclusive: 29.1 µM [inhibitor, single point]",–
O=C(O)[C@@H](O)c1ccccc1,inactive,–
Cc1cccc(/C=N/Nc2cc(N3CCOCC3)nc(N3CCOCC3)n2)c1,active: 3.26 µM,–
Cc1c(CCCl)c(Cl)n2c(nc3ccccc32)c1C#N,active: 0.92 µM,–
Cc1ccc(C(=O)OCC(=O)Nc2ccc(C)c(S(=O)(=O)N3CCCCC3)c2)c(O)c1,inactive,–
CC(=O)c1ccc(NC(=O)C2=CC(c3cccs3)=NS(=O)(=O)N2C)cc1,"inconclusive: 29.1 µM [inhibitor, single point] and inconclusive: 23.1 µM [inhibitor, single point]",–
COc1ccc(C(=O)N2CCC[C@@]3(CCN(c4ccccn4)C3)C2)cc1,inactive,–
CCCNC(=O)c1csc2c1CCCCC2,"inconclusive: 29.1 µM [inhibitor, single point]",–
Cc1ccc(S(=O)(=O)N(C)C(C)CCc2ccco2)cc1 (centres undefined),"inconclusive: 18.4 µM [inhibitor, partial curve, poor fit]",–
COc1ccc(C2(C)NC(=O)N(CC3CCCCC3)C2=O)cc1 (centres undefined),inactive,–
Cc1ccc(OCc2cc(C(=O)NC(C)Cc3cnccn3)no2)cc1C (centres undefined),"inconclusive: 29.1 µM [inhibitor, single point]",–
COc1ccc(CNCc2ccc3c(c2)n(C)c(=O)n3C)cc1,–,inconclusive: -33% [inhibitor]
CCO/C=C1/C(=O)N(CC)c2ccccc21,inactive,–
Cc1cc(C(=O)N/N=C/c2ccc3c(c2)OCO3)c2ccccc2n1,active: 2.31 µM,–
COCCCNC(=O)CCc1nc2cccnc2n1Cc1ccc(OC)cc1,inactive,–
CCCSC1=C(C#N)C2(CCCCC2)C(C#N)=C(N)N1,–,inconclusive: -36% [inhibitor]
Cc1ccc(C(=O)c2ccccc2C(=O)OCC(=O)NCC2CCCO2)cc1 (centres undefined),inactive,–
CC(=O)c1c(Nc2cccc(F)c2)oc(C)cc1=O,inactive,–
CC(C(=O)Nc1ccc(Br)cc1)N(C)CC(=O)NCc1ccco1 (centres undefined),"inconclusive: 14.6 µM [inhibitor, partial curve]",–

SMILES,Potency,"activity change, negative = growth inhibition"
COc1ccc(C(=O)OCC(=O)c2ccc(Cl)s2)c(OC)c1OC,inactive,–
CCCCCCCCN1C(=O)[C@H](CC(=O)NCc2ccc(OC)c(OC)c2)C[C@@]2(C(=O)OC)CCCCC=C12,"inconclusive: 18.4 µM [inhibitor, single point]",–
CC(C)(C)C(=O)N1CCN(c2ncnc3scc(-c4ccccc4)c23)CC1,"inconclusive: 23.1 µM [inhibitor, single point]",–
COc1ccccc1NC(=O)c1ccc(NC(=O)COC(=O)c2ccc(O)cc2)cc1,"inconclusive: 29.1 µM [inhibitor, single point]",–
COc1cc(Nc2nc(SCc3cccc(Cl)c3)nc3ccccc23)cc(OC)c1,"inconclusive: 25.9 µM [inhibitor, single point]",–
Cc1nc2c(c(C)nn2-c2ccccc2)c(C)c1CCC(=O)Nc1ccc(F)cc1,"inconclusive: 23.1 µM [inhibitor, single point]",–
O=C(CCNC(=O)c1ccc(Cl)cc1)Nc1cccc(S(=O)(=O)N2CCCCCC2)c1,"inconclusive: 23.1 µM [inhibitor, single point]",–
CC(=O)Nc1ccc(S(=O)(=O)NC(C)C(=O)OCC(=O)NC2CCCC2)cc1 (centres undefined),inactive,–
CCCNC(=O)Nc1cc(OCC)c(N2CCOCC2)cc1OCC,"inconclusive: 29.1 µM [inhibitor, single point]",–
COc1ccc(Cn2c(N)c(C#N)c3nc4ccccc4nc32)cc1,"inconclusive: 29.1 µM [inhibitor, single point]",–
CC1=NN(C(=O)c2ccc(Br)cc2)C(O)(C(F)(F)OC(F)(F)F)C1 (centres undefined),"inconclusive: 25.9 µM [inhibitor, single point]",–
CCN(CC)C(=O)CSc1nnc(CNc2ccc(F)cc2)n1Cc1ccco1,"inconclusive: 18.4 µM [inhibitor, single point]",–
O=C(Cn1nnc2ccccc2c1=O)NCc1ccco1,inactive,–
Fc1ccc(Nc2c3c(nc4nncn24)CCC3)cc1,inactive,–
O=C(N/N=C/c1ccc(Cl)cc1)c1ccc2c(c1)OCO2,"inconclusive: 23.1 µM [inhibitor, partial curve, poor fit]",–
Nc1ccn(C2CC(O)C(CO)O2)c(=O)n1 (centres undefined),inactive,–
O=C(Nc1nnc(-c2ccc3c(c2)CCCC3)o1)c1ccc(Cl)cc1Cl,active: 13 µM,–
CC1CCN(S(=O)(=O)c2cccc(C(=O)N(C)C3CCS(=O)(=O)C3)c2)CC1 (centres undefined),inactive,–
CCNC(=O)c1ccccc1NC(=O)c1cccc(S(=O)(=O)N2CCC(C)CC2)c1,"inconclusive: 18.4 µM [inhibitor, single point]",–
Cc1nc2ncccn2c1-c1csc(Nc2ccc(O)cc2)n1,"inconclusive: 18.4 µM [inhibitor, single point]",–
CCC1(c2ccccc2)NC(=O)N(CC(=O)Nc2ccc3c(C)cc(=O)oc3c2)C1=O (centres undefined),"inconclusive: 29.1 µM [inhibitor, single point]",–
Cc1ccc(C(=O)NC(=S)Nc2cccc3nsnc23)cc1,inactive,–
CS(=O)(=O)c1ccc(-c2sc3cc4c(cc3c2C(=O)NN2CCOCC2)OCO4)cc1,"inconclusive: 20.6 µM [inhibitor, single point]",–
COc1ccc(N(C(=O)c2cccc([N+](=O)[O-])c2)S(=O)(=O)c2ccc3c(c2)n(C)c(=O)n3C)cc1,"inconclusive: 17.8 µM [inhibitor, partial curve]",–
